Results as given in PMC4336329 (PLoS ONE, 2015).
The campaign covered roughly 310,000 compounds. About 14,000 (4.5%) showed an effect of 50% or more. Effects have a minus sign here. The list shows a part of the results.

Molecular target: human ether-à-go-go-related gene (hERG) potassium channel (human, UniProt Q12809)
Test: primary screen, population patch clamp on CHO cells stably expressing hERG
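Also: peak tail current of the secondary pulse compared with the same well before compound.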

Sequence of human ether-à-go-go-related gene (hERG) potassium channel (Q12809 whole entry, looked up): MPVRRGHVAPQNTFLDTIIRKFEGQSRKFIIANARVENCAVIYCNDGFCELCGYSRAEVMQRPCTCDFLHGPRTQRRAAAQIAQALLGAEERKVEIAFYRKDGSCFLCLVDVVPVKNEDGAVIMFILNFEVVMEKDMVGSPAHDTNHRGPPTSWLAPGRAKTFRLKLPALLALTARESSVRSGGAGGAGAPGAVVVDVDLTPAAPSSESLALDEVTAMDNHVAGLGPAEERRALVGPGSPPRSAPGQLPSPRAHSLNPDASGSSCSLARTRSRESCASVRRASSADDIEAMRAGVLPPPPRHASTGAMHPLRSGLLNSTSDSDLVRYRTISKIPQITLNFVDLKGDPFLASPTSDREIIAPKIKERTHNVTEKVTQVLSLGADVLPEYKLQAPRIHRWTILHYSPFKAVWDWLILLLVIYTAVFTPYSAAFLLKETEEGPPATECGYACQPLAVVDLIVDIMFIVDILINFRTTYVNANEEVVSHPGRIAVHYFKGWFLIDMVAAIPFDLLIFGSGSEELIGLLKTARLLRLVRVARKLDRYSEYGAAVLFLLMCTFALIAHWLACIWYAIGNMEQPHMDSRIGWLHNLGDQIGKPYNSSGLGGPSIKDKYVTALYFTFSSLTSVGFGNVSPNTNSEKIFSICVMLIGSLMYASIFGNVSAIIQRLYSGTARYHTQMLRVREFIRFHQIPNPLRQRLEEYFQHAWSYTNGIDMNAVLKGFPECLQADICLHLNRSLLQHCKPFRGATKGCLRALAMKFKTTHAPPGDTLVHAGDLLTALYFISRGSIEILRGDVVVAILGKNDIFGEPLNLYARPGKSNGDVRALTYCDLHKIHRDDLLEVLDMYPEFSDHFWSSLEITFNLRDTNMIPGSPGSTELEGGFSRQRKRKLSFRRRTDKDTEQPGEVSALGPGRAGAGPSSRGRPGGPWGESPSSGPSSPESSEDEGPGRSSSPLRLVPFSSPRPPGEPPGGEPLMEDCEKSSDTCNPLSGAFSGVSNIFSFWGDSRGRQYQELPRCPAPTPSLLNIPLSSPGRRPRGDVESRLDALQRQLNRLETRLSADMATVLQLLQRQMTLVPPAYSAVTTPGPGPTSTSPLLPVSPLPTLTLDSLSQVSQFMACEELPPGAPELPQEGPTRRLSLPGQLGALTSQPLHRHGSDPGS

| SMILES | hERG current change (%, negative = inhibition) at 10uM |
| --- | --- |
| Cc1ccc(C)c(SCc2noc(C(=O)NCC3CCCO3)c2C(=O)O)c1 (stereo not shown) | 13.6% |
| O=C(O)CNC1=NCCCCC1 | 0.366% |
| COc1cccc(/C=N/NC(=O)c2cccc([N+](=O)[O-])c2)c1OS(=O)(=O)c1ccc(C)cc1 | -12.9% |
| CN(Cc1cccc(Cl)c1)C(=O)C1CCN(C(=O)Nc2ccccc2)CC1 | -55.9% |
| COC(=O)c1c(O)cc(=O)n2c1CCCCC2 | 12.7% |
| Cc1c(Br)c(O)c(Br)c(O)c1/C=N/n1c(-c2ccccc2)n[nH]c1=S | 16.9% |
| COc1ccc(C(=O)NC(C)CCc2ccccc2)c(OC)c1 (stereo not shown) | -26.3% |
| COc1ccc(C(=O)n2cnc(N)n2)cc1 | 8.54% |
| CCCC(=O)NC(Oc1ccc(Cl)cc1Cl)C(Cl)(Cl)Cl (stereo not shown) | 15.1% |
| O=C(CN(c1ccc(Cl)cc1)S(=O)(=O)c1ccc(Cl)c([N+](=O)[O-])c1)NCCc1ccccc1 | 16.8% |
| COc1ccc(C)cc1-n1nnnc1SCC(=O)NC1CC1 | 0.673% |
| COc1cc(OC)c2c(=O)c(OC)c(-c3ccc(OC)c(OC)c3)oc2c1 | -21.5% |
| C=CCn1c(=NC(=O)CN2C(=O)CCC2=O)sc2cc(S(N)(=O)=O)ccc21 | 19.9% |
| COc1cc(/C=C2\SC(c3ccc(C)cc3)=NC2=O)cc(OC)c1OC | 3.32% |
| CC(=O)Nc1ccc(S(=O)(=O)NC(CC(=O)O)c2ccc(OC(C)C)cc2)cc1 (stereo not shown) | 1.57% |
| O=C(CNS(=O)(=O)c1ccc(F)cc1)N1CCCCCC1 | 13.1% |
| Cc1ccc(NC(=O)c2cc(-c3cccs3)on2)cc1C | 5.78% |
| c1ccc(-n2ncc3c(NCCN4CCOCC4)ncnc32)cc1 | -14.5% |
| Cc1nn(-c2nc(-c3ccco3)cc(C(F)(F)F)n2)c(C)c1Cl | -2.1% |
| O=C(CN1C(=O)C(=O)N(Cc2ccccc2)C1=O)Nc1cc(Cl)cc(Cl)c1 | 0.177% |
| O=C(Nc1ccc2c(c1)C(=O)NC2=O)c1cccc(C(F)(F)F)c1 | 18.8% |
| CCOc1ccc(NC(=S)N2CCCC2)cc1 | 9.13% |

| SMILES | hERG current change (%, negative = inhibition) at 10uM |
| --- | --- |
| CC(=O)c1ccc(N2CCN(C(=O)C3CCN(S(=O)(=O)c4cccs4)CC3)CC2)cc1 | -11.5% |
| Cn1c(C(=O)N2CCc3ccccc3C2)cc2c(=O)n3ccccc3nc21 | -22.5% |
| O=S(=O)(c1ccc(Br)cc1)c1nc(-c2ccccc2)oc1NCc1cccnc1 | 5.48% |
| CC(=O)Nc1ccc(Nc2nc3ccccc3nc2NS(=O)(=O)c2ccccc2)cc1 | -4.76% |
| Cc1cccc(C(=O)Nc2cccc(-c3ccc4nncn4n3)c2)c1 | -1.13% |
| Brc1ccccc1Cn1c(-c2cncs2)nc2ccccc21 | -7.99% |
| O=C(CCCN1C(=O)CCC1=O)Nc1ccccc1F | 10.8% |
| CCN(CC)CCCn1c2c(c(SCC(=O)Nc3ccc4c(c3)OCCO4)nc1=O)CCC2 | -43.4% |
| NC(=O)c1nn(-c2ccccc2)nc1NC(=O)CSc1nnnn1-c1ccc(Cl)cc1 | -53.7% |
| Cc1ccc(-c2nnc(SCC(=O)N/N=C/c3ccccc3C(=O)O)n2-c2ccccc2)cc1 | -8.62% |
| O=c1c2ccccc2ncn1-c1cccc(Br)c1 | -6.76% |
| Cc1nc2ccccc2n1CC(=O)NN | 28.3% |
| Cc1cc2[nH]c(=O)c(=O)[nH]c2cc1S(=O)(=O)NC1CCC(C)CC1 (stereo not shown) | 4.08% |
| COCCNc1nc(-c2cc(C)n(CCc3ccc(OC)cc3)c2C)cs1 | 7.65% |
| CCOC(=O)N1CCN(c2ccc(C(C)=O)cc2F)CC1 | 5.68% |
| O=C(NCc1ccncc1)C(=O)C1C(=O)Nc2ccccc21 (stereo not shown) | 11.6% |
| CCOC(=O)c1c(N2C(=O)C=CC2=O)sc(C)c1C | -4.52% |
| O=S(=O)(c1ccc(Cl)cc1)N1CCN(c2ccc(N3CCOCC3)nn2)CC1 | -13% |
| CC(C)OC(=O)CC(=O)CSc1nc2c(cc1C#N)CCC2 | 20.1% |
| Cc1ccccc1N1C(=O)NC(=O)/C(=C\c2cc(Br)c(N3CCOCC3)o2)C1=O | 14.2% |
| O=C1NCCN1CCNS(=O)(=O)c1ccc2ccccc2c1 | 9.35% |
| O=C(c1cccc(Cl)c1)N1CCN(c2ncnc3c2cnn3-c2ccccc2)CC1 | -11.8% |

| SMILES | hERG current change (%, negative = inhibition) at 10uM |
| --- | --- |
| Cc1[nH]c(=O)[nH]c(=O)c1S(=O)(=O)Nc1cccc([N+](=O)[O-])c1C | 7.76% |
| O=C(O)/C=C/C(=O)Nc1nc(-c2ccc3ccccc3c2)cs1 | 9.3% |
| Cc1cccc(NC(=O)CSCc2c(C)noc2C)c1C | 17.3% |
| O=C(Cc1ccccc1)c1c[nH]c(C(=O)O)c1 | 36.6% |
| O=C1CC(C(=O)NC2CCCCC2)C2(CCCCC2)O1 (stereo not shown) | -1.23% |
| O=S1(=O)CC(N2CCCCC2)C(N2CCCCC2)C1 (stereo not shown) | 1.51% |
| COc1ccc(S(=O)(=O)N2CCOC2CNC(=O)C(=O)NCc2ccc3c(c2)OCO3)cc1OC (stereo not shown) | -2.72% |
| Oc1c(C(Nc2ccccn2)c2cccnc2)cc(Cl)c2cccnc12 (stereo not shown) | -16.7% |
| CCOC(=O)NC(C(Cl)(Cl)Cl)S(=O)(=O)c1ccccc1 (stereo not shown) | -6.98% |
| COc1ccc(NC(=O)CCC(=O)NCCO)cc1 | 22.3% |
| Cc1cccc(-c2nc(CNC(=O)c3ccco3)cs2)c1 | -57.9% |
| COc1ccc(N2CC(C(=O)N[C@@H](C)C(=O)NCCc3ccccc3)CC2=O)cc1 (stereo partly shown) | 16% |
| CCCN(CCC)S(=O)(=O)c1ccc(NC(=O)COc2ccccc2)cc1 | -8.2% |
| O=C(Nc1ccccc1)c1ccc(NCCc2ccccc2)c([N+](=O)[O-])c1 | 11.7% |
| CN1CCOc2cc(S(=O)(=O)Nc3ccc(F)cc3)ccc21 | -9.64% |
| CS(=O)(=O)N(CC(=O)Nc1ccc2c(c1)OCO2)Cc1ccc(Cl)cc1 | -6.53% |
| C/C(N)=C(/C#N)C(=O)COC(=O)c1ccccc1O | -0.192% |
| Cc1ccccc1C(=O)Nc1ccc(N2CCCCCC2)cc1 | -19.8% |
| COc1ccc(-n2c(SCC(=O)Nc3ccc(C(=O)O)cc3)nnc2-c2cccs2)cc1 | 14.3% |
| COc1ccc(O)c(CN2CCC(n3nccc3NC(=O)CCOc3ccccc3)CC2)c1 | -60.4% |
| O=[N+]([O-])c1ccc(NCCCO)c(S(=O)(=O)N2CCOCC2)c1 | -11.1% |
| C=C1CCN([C@@H](CC(C)C)C(=O)N2CCCC2)S(=O)(=O)c2ccccc21 | -54.7% |

| SMILES | hERG current change (%, negative = inhibition) at 10uM |
| --- | --- |
| Cc1ccc(NC(=S)NC(=O)c2ccccc2)cc1NC(=S)NC(=O)c1ccccc1 | 14.3% |
| CCc1nnc(NC(=O)CSc2n[nH]c(-c3ccccc3O)n2)s1 | -1.32% |
| C#Cc1cccc(C(=O)N2CCCC(C(=O)c3ccc(OC)cc3C)C2)c1 (stereo not shown) | -6.8% |
| CN1CCN(S(=O)(=O)c2csc(C(N)=O)c2)CC1 | 13% |
| COc1ccc(CNC(=O)COC(=O)CCOc2ccc(C)cc2)cc1OC | 1.43% |
| COc1ccc(C(C(=O)NC2CCCCC2)N(C(=O)c2ccco2)c2ccccc2C(C)=O)cc1 (stereo not shown) | -1.8% |
| Cc1ccc(-n2c3nc(=O)[nH]c(=O)c-3cc3cc([N+](=O)[O-])ccc32)cc1 | -57.6% |
| Cc1ccc2nc(N3CCN(S(=O)(=O)c4ccc5c(c4)OCCO5)CC3)c(C#N)cc2c1 | 5.82% |
| O=C1NC(=O)C2C1C(c1ccccc1)N1C3C(=O)NC(=O)C3C(c3ccccc3)N21 (stereo not shown) | 3.74% |
| Cc1nc2sc(C(c3cccc(F)c3)N3CCC(C)CC3)c(O)n2n1 (stereo not shown) | -5.78% |
| CCCC12CN3CC(CCC)(CN(C1)C3C(O)C(O)C(O)CO)C2=O (stereo not shown) | -6.74% |
| COc1ccc(NC(=S)N/N=C/c2cccn2Cc2ccccc2F)cc1 | 13.5% |
| COc1ccc(N(C)S(=O)(=O)c2ccc3c(c2)NC(=O)CO3)c(OC)c1 | 2.58% |
| CSc1nsc(SCC(=O)Nc2ccc(O)c(C(=O)O)c2)n1 | 8.17% |
| COc1ccc(Cc2noc(CN3CCCC(OCc4ccccn4)C3)n2)cc1OC (stereo not shown) | -6.44% |
| CCOC(=O)C1CCN(c2nc3ccccc3n2CC(=O)c2ccccc2)CC1 | 19.8% |
| Cn1c(=O)c2c(nc(NCCCO)n2Cc2cccc(Br)c2)n(C)c1=O | -34.2% |
| CC1(C)CC(n2c(NCCO)nc3c(c2=O)C2(CCCC2)Cc2ccccc2-3)CCO1 (stereo not shown) | -1.56% |
| CC(Oc1ccc(F)cc1)C(=O)Nc1ccc(N2CCOCC2)cc1N1CCOCC1 (stereo not shown) | -19.8% |
| CCOc1ccccc1NS(=O)(=O)c1c[nH]c(C(=O)OC)c1 | 3.14% |
| COc1ccc(NC(=O)NN2CCN(C)CC2)cc1OC | -15.4% |
| O=C(CNC(=O)c1cccc(Cl)c1)NCCCSc1ccccc1 | -5.81% |
